Test results as given in the supplement of paper PMC4604168 (melanoma cell lines).
This is one part of the list. Most values come without repeats; read them as rough.

Test system: SkMel28
Assay: cell count relative to DMSO control; melanoma cells; higher = more viable cells
Conditions: library dose: standard library concentration; 72 h
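Note: cells treated in 1,536-well plates, then fixed and DAPI-stained, with nuclei counted from automated high-throughput microscope images.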

Row | SMILES | cell count [%]
1 | NC(=O)c1ccc(N(C(N)=O)c2c(F)cccc2F)nc1-c1ccc(F)cc1F + COc1cc2ncnc(Nc3ccc(Oc4ccccc4)cc3)c2cc1OC [SrcI1] (first compound 2 µM, partner dose 10 µM) | 48.4
2 | CCCCCCCCc1ccc(CCC(N)(CO)CO)cc1 [fingolimod] + Oc1cc(-c2nc(-c3ccccc3)[nH]c2-c2ccncc2)ccc1Cl [L779450] (first compound 10 µM, partner dose 1 µM) | 1.09
3 | NC(=O)c1ccc(N(C(N)=O)c2c(F)cccc2F)nc1-c1ccc(F)cc1F + Oc1cc(-c2nc(-c3ccccc3)[nH]c2-c2ccncc2)ccc1Cl [L779450] (first compound 2 µM, partner dose 1 µM) | 40.8
4 | COc1cc2c(Oc3ccc4[nH]c(C)cc4c3F)ncnc2cc1OCCCN1CCCC1 [cediranib] + COC(=O)c1sccc1S(=O)(=O)Nc1ccc(Nc2ccccc2)cc1OC [GSK0660] (first compound 2 µM, partner dose 5 µM) | 82.8
5 | NC(=O)c1ccc(N(C(N)=O)c2c(F)cccc2F)nc1-c1ccc(F)cc1F + Cc1cc([N+](=O)[O-])ccc1NS(=O)(=O)c1cc(Cl)ccc1Cl [FH535] (first compound 2 µM, partner dose 5 µM) | 62.8
6 | Cc1ccc(NC(=O)c2cccc(N(C)C)c2)cc1NC(=O)c1ccc(O)cc1 + N#Cc1c(O)c2c(-c3ccc(-c4ccccc4O)cc3)csc2[nH]c1=O [A769662] (first compound 10 µM, partner dose 10 µM) | 99.4
7 | NC(=O)c1ccc(N(C(N)=O)c2c(F)cccc2F)nc1-c1ccc(F)cc1F + COc1cc(N2CCC(N3CCN(C)CC3)CC2)ccc1Nc1ncc(Cl)c(Nc2ccccc2S(=O)(=O)C(C)C)n1 [NVP-TAE684] (first compound 2 µM, partner dose 0.4 µM) | 74.4
8 | CCc1ccc(CCOc2ccc(CC3SC(=O)NC3=O)cc2)nc1 (stereo unspecified) [pioglitazone] + COc1ccc2c(c1)CCC1C2CCC2(C)C(NCCCCCCN3C(=O)C=CC3=O)CCC12 [U73122] (first compound 10 µM, partner dose 2 µM) | 61.7
9 | NC(=O)c1ccc(N(C(N)=O)c2c(F)cccc2F)nc1-c1ccc(F)cc1F + COc1ccc2c(c1)CCC1C2CCC2(C)C(NCCCCCCN3C(=O)C=CC3=O)CCC12 [U73122] (first compound 2 µM, partner dose 2 µM) | 90
10 | NC(=O)c1ccc(N(C(N)=O)c2c(F)cccc2F)nc1-c1ccc(F)cc1F + O=S(=O)(c1ccccc1)N(CC(F)(F)F)c1ccc(C(O)(C(F)(F)F)C(F)(F)F)cc1 [T0901317] (first compound 2 µM, partner dose 7 µM) | 75.8
11 | CCCCCCCCc1ccc(CCC(N)(CO)CO)cc1 [fingolimod] + Cc1cc([N+](=O)[O-])ccc1NS(=O)(=O)c1cc(Cl)ccc1Cl [FH535] (first compound 10 µM, partner dose 5 µM) | 4.97
12 | CCCCCCCCc1ccc(CCC(N)(CO)CO)cc1 [fingolimod] + COc1ccc2c(c1)CCC1C2CCC2(C)C(NCCCCCCN3C(=O)C=CC3=O)CCC12 [U73122] (first compound 10 µM, partner dose 2 µM) | 1.21
13 | NC(=O)c1ccc(N(C(N)=O)c2c(F)cccc2F)nc1-c1ccc(F)cc1F + COC(=O)c1sccc1S(=O)(=O)Nc1ccc(Nc2ccccc2)cc1OC [GSK0660] (first compound 2 µM, partner dose 5 µM) | 86.2
14 | CCCCCCCCc1ccc(CCC(N)(CO)CO)cc1 [fingolimod] + Cc1cc(Nc2cc(N3CCN(C)CC3)nc(/C=C/c3ccccc3)n2)n[nH]1 [ENMD2076] (first compound 10 µM, partner dose 0.2 µM) | 1.56
15 | NC(=O)c1ccc(N(C(N)=O)c2c(F)cccc2F)nc1-c1ccc(F)cc1F + COc1ccc(-c2ccc3c(N4CCOCC4)nc(N4C[C@@H](C)O[C@@H](C)C4)nc3n2)cc1CO [KU0063794] (first compound 2 µM, partner dose 0.1 µM) | 76.9
16 | CCCCCCCCc1ccc(CCC(N)(CO)CO)cc1 [fingolimod] + O=S(=O)(c1ccccc1)N(CC(F)(F)F)c1ccc(C(O)(C(F)(F)F)C(F)(F)F)cc1 [T0901317] (first compound 10 µM, partner dose 7 µM) | 0.855
